Test results taken from the supplement of paper PMC10126150.
Sequences with one replicate were seen in a single cluster, so their values are uncertain.

Tested on: ATP
Test: switch fluorescence ratio, 500 uM ATP over buffer (Cy3 cluster intensity, sum of 5 cycles each) (fold (ratio)); higher = stronger signal-on switching upon ATP binding; sequences stand for … in TCGTCGGCAGCGTCAGATGTGTATAAGAGACAGTTTTTTTTTTTTTTTTTTTTTTTTT…TC
Conditions: aptamer strand: ATP DNA aptamer (quencher-CACCTGGGGGAGTATTGCGGAGGAAGG + anchor), 100 nM annealed; ATP concentration: 500 uM; one replicate
Summary of the method: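 After annealing to 100 nM quencher-labelled ATP aptamer, Cy3-labelled switching-strand clusters on a modified Illumina MiSeq flow-cell were imaged in selection buffer. A second image followed after 15 min with 500 uM ATP at 22 °C, and five such buffer/ATP cycles were done, each separated by NaOH stripping and re-annealing. The fluorescence ratio, averaged per switch-domain sequence, is summed target-cycle over summed buffer-cycle Cy3 intensity per cluster, with clusters outside 100-1000 RFU excluded.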
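Note: ATP exposure 15 min at 22 °C before imaging.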

| Sequence | switch fluorescence ratio |
| --- | --- |
| GATAGGGTCC | 1 |
| CTAAACGAAT | 1.01 |
| AGTTACTGAA | 1.06 |
| GGTCTTAGCT | 1.03 |
| TATAGACAAA | 1.01 |
| GCTTGAACCT | 1.15 |
| AGACTGTAGT | 1.03 |
| GGTAAACGGC | 1.02 |
| CCTAACCCTT | 0.974 |
| GTGTCGAT | 1 |
| GAGTTAGATG | 0.949 |
| TCTTGTGCTG | 1.01 |
| GTAAGGTATC | 0.958 |
| GGGTCTGCAA | 2.41 |
| CGTTGGAGTT | 1.02 |
| TTGAGCCTCA | 0.966 |
| CCCGCCCCAG | 1.2 |
| TAAAAAAGCA | 1.15 |
| TTGCTATTAC | 1.91 |
| TCCTCTTTCT | 1.04 |
| CTCGGAGTAT | 1.07 |
| ATCTCTCGGT | 0.998 |
| GGATTGCGGG | 0.993 |
| CAGTAAGGAT | 1.02 |
| AAGAAACGAT | 0.994 |
| GAGAGATTCT | 1.01 |

| Sequence | switch fluorescence ratio |
| --- | --- |
| TCGTCACGTC | 1.02 |
| GTTGTCAGAA | 1.03 |
| GTTGGGCTGC | 0.99 |
| TCAGGAACGT | 1.08 |
| CTTTCTCGCC | 1.06 |
| TATCGGATCG | 0.963 |
| AGTCCATACC | 1.02 |
| GTGAAGATCG | 0.983 |
| TGCACGCGTC | 1.06 |
| TAATTGATGG | 1.01 |
| CCGCCTGTTA | 1.32 |
| TACTCAAGA | 1.2 |
| TGTTGTCCGG | 1.02 |
| AACTTATTAG | 1.03 |
| TTTAGTCGTT | 0.98 |
| GTTGCGATTA | 1.02 |
| TCCGTGTTAC | 4.66 |
| TGCAAT | 1.36 |
| GGGCCCCCGT | 0.96 |
| TCTCAACGTA | 1.07 |
| AACCGGCTG | 1.06 |
| CCACGACTGC | 1.24 |
| ACTTTTACTG | 1.17 |
| CAGTGGGTTC | 0.958 |
| AATTTTTGCG | 0.953 |
| CATGCCGCGT | 1.03 |

| Sequence | switch fluorescence ratio |
| --- | --- |
| CTTTTGGCCC | 1.04 |
| GCCCTTGGGT | 1.01 |
| GGTAGACTGC | 1.05 |
| AATCTCGGCT | 0.989 |
| AATTATGGCG | 0.982 |
| CTACTGCCAC | 1.35 |
| CCCCATAGGT | 1.51 |
| TCTATATCCT | 1.03 |
| CATACCCGGC | 1.01 |
| ATTAGCGGAC | 1.22 |
| AAAGGCACAG | 0.981 |
| TCCGAAAAAC | 2.14 |
| AATCTATCCG | 0.948 |
| GAAGGGCTCC | 1.04 |
| GAGAAAAAGC | 1.04 |
| AATTAGCTTG | 0.978 |
| CCTTAATAGT | 1.01 |
| GGAGTTAGCG | 1.02 |
| AGAACAGGCG | 1.02 |
| GAGGGCTCAT | 1.06 |
| TTGTATGGCC | 0.964 |
| GGTGTGTCCG | 1.03 |
| CTTTTCGAAA | 0.953 |
| CATAAGCAAC | 2.48 |
| ACAACCTAGG | 0.984 |
| GGATGGAACG | 1.07 |

| Sequence | switch fluorescence ratio |
| --- | --- |
| ATCAAAGGCG | 1.03 |
| AATTGACCAG | 1.03 |
| CTCATCAGG | 1.13 |
| TGAGCCTTGC | 0.985 |
| AATAGTATCA | 0.986 |
| ATGGAGCTCG | 0.995 |
| TCGGGTCCGG | 1 |
| TACCGCATCG | 1.26 |
| CGCTTCTGTG | 0.984 |
| AGGATGACGT | 0.924 |
| AGGCGTCCTG | 1.02 |
| CACCAGGGAC | 1.2 |
| ATGTGGAGTT | 0.963 |
| GCAGGATTAG | 0.949 |
| AAACTACCCG | 0.978 |
| CCTTTTCCAG | 1.03 |
| GTGCGGTCCG | 1.04 |
| GGGTTATGG | 0.99 |
| TCTGTAGTTA | 1.15 |
| GGCCTTATGT | 0.978 |
| ATACGCACGG | 1.56 |
| TGAATGAAAA | 1 |
| AACAGGGGCC | 1.02 |
| TTCCGGGGTG | 1.14 |
| TGATTACTGC | 0.939 |
| CCGTGTCTGG | 1 |

| Sequence | switch fluorescence ratio |
| --- | --- |
| CGGCCCGAAA | 1.03 |
| ATGCGTATAT | 1.03 |
| AGAGATGGAG | 1.04 |
| TCAGAGGAGA | 1.06 |
| GCGCGCCGAG | 0.975 |
| GGGTGAATAG | 1.07 |
| GTTGGAGTAT | 1.02 |
| TTCTGAAAT | 1.11 |
| TGCAGTCGAA | 1.02 |
| GTAGTTGCGT | 0.973 |
| AGTTAGCGGC | 1.01 |
| AGGCTGAA | 1.02 |
| TAGGCCGAAC | 1.06 |
| AAGGGTGAGG | 1 |
| GTAGATATGG | 1.02 |
| TATTGTAGTA | 0.999 |
| GGAATCTAGG | 0.982 |
| AAATTTTTAT | 1.04 |
| GATCGTTGAG | 0.966 |
| TGGACTAAGT | 0.997 |
| GGGTCCAGA | 0.98 |
| ACACTTGACT | 1.12 |
| GGGTGTTCGA | 1.03 |
| TAAGTTCCGT | 1.01 |
| CGACTTAGTG | 0.976 |
| CGGCTTACCA | 1.04 |

| Sequence | switch fluorescence ratio |
| --- | --- |
| GAGCTGTAAG | 0.977 |
| GGACCAAGGC | 1.05 |
| TTAGAGAGCT | 1.07 |
| AGTCTTGGTA | 0.981 |
| GGAACCTATG | 1.02 |
| CTTTTATGGC | 1.05 |
| GATCCGTGCG | 1.02 |
| CGGGATAGG | 1.02 |
| TCTTTGCTGT | 0.949 |
| CAGACGAGTG | 1.02 |
| ATTGATCCTC | 1.02 |
| CAATGGTACA | 0.991 |
| AGGGGTGACG | 1.17 |
| GCGGCGCACT | 0.999 |
| GATGTCGGCG | 1.06 |
| ATATTCAAGC | 0.99 |
| TATTCGGCTA | 0.996 |
| ATATGCCGTC | 0.998 |
| CAAGCTTGGA | 0.944 |
| ATGTACTCCG | 1.13 |
| TTTTGCCCTT | 1.02 |
| CATTAATAAA | 0.942 |
| CAGTGCTGCG | 0.974 |
| CTTTTATG | 0.981 |
| CAACACGCCT | 0.999 |
| TATTAAGAGT | 1.05 |

| Sequence | switch fluorescence ratio |
| --- | --- |
| GAGAGATAGG | 1.05 |
| GTCCTTCGGT | 0.987 |
| CATCTAAATA | 1.44 |
| TCATTATTTT | 1.13 |
| GGATGGGACG | 0.988 |
| TGCAGCGGGC | 1.14 |
| AAAGGTGCTT | 1.05 |
| TGGCTGTGAG | 1.01 |
| ATATTGTAAT | 1.03 |
| GCTTCAAAG | 0.988 |
| TTCCCCACCG | 1.08 |
| GGCCTGAGGA | 1.01 |
| GAGTCCGGTA | 1.12 |
| CAGACTAATT | 1.04 |
| GACGATACTG | 1.1 |
| AAACACAGAC | 1.18 |
| GAATCTGTAG | 1.01 |
| CAATGTGAAT | 0.943 |
| GTTATTTGGC | 1.01 |
| TCTAAAGAGT | 1.01 |
| GCGTGTCTGA | 1.09 |
| ACAGAAACGG | 1.05 |
| TGTGATCGGA | 1.03 |
| CGGCGCTCT | 1.03 |
| GAGGGATTAG | 1.04 |
| TGTGTAACCG | 0.989 |

| Sequence | switch fluorescence ratio |
| --- | --- |
| TTGAATGGCG | 1.08 |
| GACGCTGGTG | 1.03 |
| CGAAGGGATC | 1.18 |
| GTGCGGGACT | 1.01 |
| ATAGGGGAG | 0.969 |
| ATTTGGACCT | 1.37 |
| CAGGTGGGAT | 1.14 |
| GAAAAGTAGC | 1.02 |
| TGGTGTGTAA | 0.929 |
| CACGGAGTTG | 1 |
| AAGCATAATG | 1.08 |
| AACGCGCCGA | 1.09 |
| TCACATCCCG | 1.05 |
| TAACTGGTCA | 1.02 |
| GAATACGAG | 1.07 |
| AGTCCGCGCA | 2.14 |
| ACGGGAGATA | 0.999 |
| ATACATTTT | 1 |
| TATGACATCG | 1.02 |
